{"source": "PubChem BioAssay AID720542", "about": "(National Center for Advancing Translational Sciences (NCATS), 2013)", "note": "Screen size: about 360,000 compounds; about 740 (0.21%) were called active. This list was built around the results that the source calls inconclusive (neither active nor inactive); the mix of calls is not that of the screen. Calls follow the shape of the dose curve; as a rule, active = well fitted inhibition curve with a large enough effect; inconclusive = small, poorly fitted or top-dose-only effect; inactive = no such curve, though single readings can be large or run the other way. Potencies of inconclusive entries are left out as doubtful fits. Potency is read from the fitted curve at half-maximal effect; tags tell the direction and shape of the fitted curve."}
{"tested_on": "Plasmodium falciparum AMA1 (3D7) - RON2 peptide interaction", "assay": "qHTS for Inhibitors of AMA1-RON; Towards Development of Antimalarial Drug Lead: Primary Screen; also: nearly all actives have a fitted effect of over 45% in size;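 as to activity change, negative = inhibition: 0% = vehicle wells and -100% = peptide control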", "settings": "AlphaScreen AMA1-biotinylated RON2 peptide binding; activity change, negative = inhibition: at 58.2 µM (top of the series) unless noted", "procedure,_shortened": "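AMA1 (3D7) with his tag at 25 nM final met compounds first, then biotinylated RON2 peptide at 25 nM; detection used donor plus acceptor beads, 10 µg/mL apiece, read by AlphaScreen after 30 min at room temperature.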"}
{"smiles": "Cc1ccc(OCC(=O)c2c(N)n(C)c(=O)n(C)c2=O)c([N+](=O)[O-])n1", "Potency": "inconclusive [inhibitor, partial curve]"}
{"smiles": "CC(=NNC(=S)N1CC2CCC(CC2)C1)c1ccncn1", "Potency": "inconclusive [inhibitor, single point]"}
{"smiles": "CN(C)CCOCCOc1ccc(Cl)cc1C(C)(C)C", "Potency": "inconclusive [inhibitor, single point]"}
{"smiles": "Cc1nc2ncccn2c1-c1csc(Nc2ccc(N(C)C)cc2)n1", "Potency": "active: 14.1 µM"}
{"smiles": "COc1ccc(N2CCN(C(=O)c3ccc(C(C)(C)C)cc3)CC2)cc1", "Potency": "inconclusive [inhibitor, single point]"}
{"smiles": "Cn1cnnc1SCC(=O)N1CCC(Cc2ccccc2)CC1", "Potency": "inactive"}
{"smiles": "CCc1ccc(OCCOCCN2CCN(C)CC2)cc1", "Potency": "inconclusive [inhibitor, partial curve]"}
{"smiles": "CCOC(=O)N1CCC(NC(=O)c2cccn3c(=O)c4cc(Br)ccc4nc23)CC1", "Potency": "inactive"}
{"smiles": "CCCC(=O)Nc1nnc(CC(=O)N2CCCC2)s1", "Potency": "inconclusive [inhibitor, partial curve]"}
{"smiles": "Nc1ncnc2c1ncn2[C@@H]1O[C@H](C(=O)NCC2CCN(Cc3ccccc3)CC2)[C@@H](O)[C@H]1O", "Potency": "inactive"}
{"smiles": "CCS(=O)(=O)N1CCN(Cc2ccncc2)CC1", "Potency": "inconclusive [inhibitor, partial curve]"}
{"smiles": "O=C1OCC(c2ccc(Cl)s2)=C1c1ccccc1[N+](=O)[O-]", "Potency": "inconclusive [inhibitor, partial curve]"}
{"smiles": "O=C(CCN1CCN(c2ccccc2F)CC1)Nc1ccc2c(c1)OCO2", "Potency": "inconclusive [inhibitor, single point]"}
{"smiles": "Oc1ccccc1C=NN1CCCCCC1", "Potency": "inconclusive [inhibitor, single point]"}
{"smiles": "COc1ccc2c(CCNC(=O)Nc3ccccc3)c[nH]c2c1", "Potency": "inconclusive [inhibitor, partial curve, poor fit]"}
{"smiles": "O=C(C(c1ccccc1)c1ccccc1)N1CC[C@@]2(O)CCCC[C@H]2C1", "Potency": "inconclusive [inhibitor, partial curve]"}
{"smiles": "O=[N+]([O-])c1cccc(-c2c(-c3ccccc3)ncc3ccc(F)cc23)c1", "activity change, negative = inhibition": "inconclusive: -30.5% [inhibitor]"}
{"smiles": "COc1cccc(N=Nc2ccc3cccnc3c2O)c1", "Potency": "inactive"}
{"smiles": "CN(C)CCCN(C(=O)c1cc2ccccc2oc1=O)c1nc2ccc(F)cc2s1", "Potency": "inactive"}
{"smiles": "O=C(CN1C(=O)NC2(CCCCC2)C1=O)Nc1cc(C(F)(F)F)ccc1N1CCOCC1", "Potency": "inactive"}
{"smiles": "COc1cccc(C(O)c2nc(-c3ccc(N(C)C)cc3)cs2)c1", "note": "(stereo not given)", "Potency": "inconclusive [inhibitor, partial curve]"}
{"smiles": "O=[N+]([O-])c1cccc(/C=N\\N2CCN(Cc3ccccc3Cl)CC2)c1", "Potency": "inconclusive [inhibitor, single point]"}
{"smiles": "CCN(CC)c1ccc(NC(=O)c2ccccc2F)cc1", "Potency": "inactive"}
{"smiles": "CCN(CC)c1ccc(/C=N/N2CCN(Cc3ccccc3)CC2)c(O)c1", "Potency": "inconclusive [inhibitor, partial curve]"}
{"smiles": "Oc1cccc(-c2sc3ccccc3c2-c2ccc(OCCN3CCCCC3)cc2)c1", "Potency": "inconclusive [inhibitor, partial curve]"}
{"smiles": "Cc1ccc(-n2nc(C)c3c2OC(N)=C(C#N)C3c2ccco2)cc1", "note": "(stereo not given)", "Potency": "inconclusive [inhibitor, single point]"}
{"smiles": "COC(=O)c1ccc(-c2ccco2)n1Cc1ccccc1Cl", "Potency": "inconclusive [inhibitor, single point]"}
{"smiles": "S=C(NC1CCCC1)N1CCN(c2ccc(Cl)cc2)CC1", "Potency": "inconclusive [inhibitor, single point]"}
{"smiles": "CCOc1ccc(Cc2nc(-c3nonc3N)no2)cc1OCC", "Potency": "inactive"}
{"smiles": "CCCCCN(C(=O)CCC(=O)OCC(=O)N1C(C)CCCC1C)c1c(N)n(CCCC)c(=O)[nH]c1=O", "note": "(stereo not given)", "Potency": "inactive"}
{"smiles": "COc1cc(N=Nc2ccc(C(=O)N(C)C)cc2)c(C)cc1N", "Potency": "inconclusive [inhibitor, single point]"}
{"smiles": "O=C(CSc1nccn1-c1cccc(Cl)c1)Nc1ccc2c(c1)OCCO2", "Potency": "inconclusive [inhibitor, partial curve, poor fit]"}
{"smiles": "CC1CCCC(C)N1C(=C(Cl)Cl)C(=C1SCCS1)[N+](=O)[O-]", "note": "(stereo not given)", "Potency": "inconclusive [inhibitor, partial curve]"}
{"smiles": "CC(C)N1C(=O)/C(=C\\c2nc3ccccc3c(=O)n2-c2ccccc2)c2ccccc21", "Potency": "inconclusive [inhibitor, single point]"}
{"smiles": "O=C(O)c1ccc2c(c1)C(=O)N(c1ccccc1-c1ccccc1)C2=O", "Potency": "inconclusive [inhibitor, single point]"}
{"smiles": "Nc1ncnc2oc(-c3ccco3)c(-c3ccco3)c12", "Potency": "inconclusive [inhibitor, partial curve]"}
{"smiles": "COC(=O)[C@H]1[C@H]2C[C@@H]3c4[nH]c5cc(OC)ccc5c4CCN3C[C@H]2C[C@@H](OC(=O)/C=C/c2cc(OC)c(OC)c(OC)c2)[C@@H]1OC", "Potency": "inconclusive [inhibitor, partial curve]"}
{"smiles": "O=C1C(NS(=O)(=O)c2cccs2)=C(N2CCN(c3cccc(Cl)c3)CC2)C(=O)c2ccccc21", "Potency": "inconclusive [inhibitor, full curve]"}
{"smiles": "c1ccc2c(c1)CCN(c1nc3cc4c(cc3s1)OCO4)C2", "Potency": "inconclusive [inhibitor, partial curve]"}
{"smiles": "CCOc1cc(N2CCOCC2)c(OCC)cc1NC(=O)c1ccc(C)s1", "Potency": "inconclusive [inhibitor, single point]"}
{"smiles": "Cc1ccc(-c2nc(Nc3ccc(N4CCOCC4)cc3)c3ccccc3n2)cc1", "Potency": "inconclusive [inhibitor, partial curve]"}
{"smiles": "Cc1cc(C)cc(OCC(=O)NC2CCCc3ccccc32)c1", "note": "(stereo not given)", "Potency": "inactive"}
{"smiles": "CCOC(=O)c1ccc(NCCc2ccc(OC)c(OC)c2)c(N)c1", "Potency": "inconclusive [inhibitor, partial curve]"}
{"smiles": "CSc1ccc2c(c1)C(N1CCN(C)CC1)Cc1ccc(F)cc1S2", "note": "(stereo not given)", "Potency": "inconclusive [inhibitor, single point]"}
{"smiles": "Cn1c(=O)c(C(=O)CCl)c(N)n(Cc2ccccc2)c1=O", "Potency": "inactive"}
{"smiles": "Fc1ccc2c(c1)C(c1ccc(N3CCOCC3)cc1)=NNC(c1cccs1)=N2", "Potency": "inconclusive [inhibitor, partial curve]"}
{"smiles": "CCCc1nnc(NC(=O)CSc2nnc(-c3ccco3)n2C)s1", "Potency": "inactive"}
{"smiles": "Cc1ccc(N(Cc2ccccc2)C(=O)c2cc(S(=O)(=O)N3CCOCC3)ccc2N2CCCC2)cc1", "Potency": "inconclusive [inhibitor, full curve]"}
{"smiles": "COC(=O)c1cc(OC)c(OC)cc1NC(=S)N1CCN(C/C=C/c2ccccc2)CC1", "Potency": "inconclusive [inhibitor, partial curve]"}
{"smiles": "CCOC(=O)C1CCCN(C(=O)Cc2ccc(OC)c(OC)c2)C1", "note": "(stereo not given)", "Potency": "inconclusive [inhibitor, full curve, poor fit]"}
{"smiles": "O=C1NC(=O)N(Cc2ccccc2)C(=O)/C1=C\\c1ccco1", "Potency": "inconclusive [inhibitor, single point]"}
{"smiles": "COc1ccccc1NS(=O)(=O)c1ccc(N/N=C(\\C)C(C)C)c([N+](=O)[O-])c1", "Potency": "inconclusive [inhibitor, full curve, poor fit]"}
{"smiles": "COc1cc2c(C#N)c(N3CCc4ccccc4C3)nc(N)c2c(N)n1", "Potency": "inconclusive [inhibitor, single point]"}
{"smiles": "CN1C=CC=C/C1=C1\\SC(=S)N(C2CCCCC2)C1=O", "Potency": "inconclusive [inhibitor, single point]"}
{"smiles": "CCOC(=O)c1cc2cc(OC)ccc2n1C1CCN(CCc2ccccc2)CC1", "Potency": "inconclusive [inhibitor, single point]"}
{"smiles": "CCc1nnc(NC(=O)C(C)C)s1", "Potency": "inactive"}
{"smiles": "CCOC(=O)C1=C(CN2CCc3ccccc32)NC(=O)NC1c1cccc([N+](=O)[O-])c1", "note": "(stereo not given)", "Potency": "inconclusive [inhibitor, partial curve]"}
{"smiles": "COC(=O)c1ccc(N2CCC(c3cc(-c4ccc(OC)cc4)n[nH]3)CC2)c([N+](=O)[O-])c1", "Potency": "inconclusive [inhibitor, partial curve]"}
{"smiles": "Cc1cccc(Oc2nc(CN3CCOCC3)nc3sc4c(c23)CCCC4)c1", "Potency": "inconclusive [inhibitor, partial curve]"}
{"smiles": "COc1cc(CN2CCN(c3ccccc3F)CC2)c([N+](=O)[O-])cc1OC", "Potency": "inconclusive [inhibitor, single point]"}
{"smiles": "COc1ccccc1NS(=O)(=O)c1ccc(Cl)c(NC(=O)CN2C(=O)c3ccccc3C2=O)c1", "Potency": "inactive"}
{"smiles": "Cn1c(=O)[nH]c(=O)c2[nH]c(NCCCN3CCOCC3)nc21", "Potency": "inconclusive [inhibitor, single point]"}
{"smiles": "COc1ccc(-c2nc(CS(=O)(=O)CC(=O)NCc3ccccc3OC)c(C)o2)cc1", "Potency": "inactive"}
{"smiles": "CC[C@]12c3[nH]c4cc(-c5ccco5)ccc4c3CCN1C(=O)[C@@H](CC(=O)NCCCn1ccnc1)C[C@@H]2C(=O)N1CCN(C(=O)c2ccco2)CC1", "Potency": "inconclusive [inhibitor, single point]"}
{"smiles": "CC(C)N(C(=O)[C@H]1C[C@H](CC(=O)NCc2ccco2)C(=O)N2CCc3c([nH]c4cc(-c5ccco5)ccc34)[C@]12C)C(C)C", "Potency": "inconclusive [inhibitor, single point]"}
